Over roughly 13,000 compounds, “IFI” has its median near 4; the highest 2% begin near 17. The list shows a part of the results.

This note sets out measurements from ChEMBL document CHEMBL1157539, “Thousands of chemical starting points for antimalarial lead identification” (Nature, 2010).

This experiment in a line: GSK_TCMDC: Inhibition Frequency Index (IFI). The number of non-kinase HTS assays where a compound showed > 50 % inhibition, expressed as a percentage of the number of such assays in which the compound was tested (-0 is zero). The experiment is classed as functional.
As for `Oc1cccc(/C=N/Nc2ccnc3cc(Cl)ccc23)c1`, the IFI turned out to be 0.74%.

For the compound `COc1ccc(OC)c(-c2cccc(-c3cccc(NC(=O)c4ccc([N+](=O)[O-])o4)c3)n2)c1`, the IFI was 11.9%.

With `COc1cc(Nc2ncc3c(C)nc(-c4cc5ccccc5[nH]4)n3n2)cc(OC)c1OC`, the IFI was determined as 3.57%.

`Clc1ccc(-n2cnc3c(Nc4ccc(Oc5ccccc5)cc4)ncnc32)cc1Cl` gave an IFI of 1.52%.

Consider `CCCc1ccccc1Nc1nc(C)cc(N(CC)CCCN2CCCCC2)n1`, for which the IFI came to 7.59%.

For the compound `CN(CC(=O)Nc1cc(C(F)(F)F)ccc1-n1cncn1)Cc1nc2ccccc2s1`, the IFI was -0%.

On to `O=C(Cc1c[nH]cn1)Nc1ccc(-c2cccc(-c3nc4cc(C(F)(F)F)ccc4[nH]3)c2)cc1`, for which the IFI came out at 3.74%.

Regarding `NC1=NC2(CCCCC2)N(OCCCCCCc2ccccc2)C(N)=N1`, the IFI turned out to be 23.9%.

For `O=C(Nc1cccc(-c2nc3ccccc3[nH]2)c1)c1cccc(NC(=O)c2ccco2)c1`, the IFI was 4.29%.

`O=C(O)c1ccc(-c2c[nH]c3ncc(-c4ccc(Cl)cc4)cc23)cc1` displayed an IFI of 5.52%.

As for `COc1ccc(Oc2cnc(N)nc2N)c(C(C)C)c1`, the IFI is 2.56%.

As for `CN1CCN(CC(=O)Nc2ccc(-c3ccc(-c4nc5ccccc5[nH]4)cc3)cc2)CC1`, the IFI came out at 5.45%.

In turn, `NOCCCOc1ccc(Cl)cc1` gave an IFI of -0%.

`O=S(=O)(c1ccc(NC(S)=NN=Cc2ccccn2)cc1)N1CCCCC1` had an IFI of 6.47%.

Take `O=C(Nc1ccc([N+](=O)[O-])cc1Cl)c1cc(Br)cc(Cc2ccccc2)c1O`: the IFI was 16.2%.

Compound `O=c1cc(NCCC2CC=CCN2Cc2ccc(Cl)c(Cl)c2)[nH]c2ccccc12` (centres undefined) registered an IFI of 3.91%.

`Cc1cc(CNCCCCCCCNCc2ccc(Cl)cc2)ccc1O` registered an IFI of 3.7%.

`FC(F)(F)c1cnc(Sc2nnc(-c3ccncc3)o2)c(Cl)c1`: the IFI is 3.5%.

For `COc1ccc2ccccc2c1CON1C(=N)N=C(N)NC1(C)C`, the IFI stood at 1.42%.

Compound `CC(=O)Nc1ccc(Cl)c(Cl)c1` had an IFI of -0%.

In turn, `COc1cc(NC(=O)C(c2ccc(Cl)cc2)C(C)C)cc(OC)c1OC` (centres undefined) displayed an IFI of 6.06%.

Compound `O=c1cc(NCCCNC(CNCCc2ccccc2)c2cc(Br)cc(Br)c2)[nH]c2ccccc12` (centres undefined) gave an IFI of 5.84%.

As to `CC(C)[C@H](NC(=O)c1ccc(O)c(-c2cccc(C(F)(F)F)c2)c1)C(=O)NCCN1CCCCC1`, the IFI was 0%.

As for `CON(C)C(=O)[C@@H](CCCCNC(=O)OCc1ccccc1)NC(=O)OC(C)(C)C`, the IFI is 1.5%.

`COc1ccc(-c2ccc(NC(=O)c3ccc(F)cc3)cc2)cc1CNC(C)C` gave an IFI of 2.97%.

On to `CCCCCC(C)C(C)c1cc(O)c2c(c1)OC(C)(C)CC2=Cc1ccncc1` (centres undefined), for which the IFI is -0%.

Turning to `CCOC(=O)C(NC(=O)c1ccc([N+](=O)[O-])o1)C(C)C` (centres undefined), the IFI stood at 1.41%.

Compound `CCCCCCCCNCC(O)c1cc(-c2ccc(Cl)cc2)nc2cc(C)ccc12` (centres undefined) gave an IFI of 4.41%.

`CC1CN(c2cnn(Cc3ccc(NC(=O)Nc4ccc(F)cc4[N+](=O)[O-])cc3)c(=O)c2Cl)CC(C)N1` (centres undefined) registered an IFI of -0%.

Compound `O=C(Nc1cccc(C(F)(F)F)c1)c1cc([N+](=O)[O-])cc2cn[nH]c12` showed an IFI of 5.62%.

In turn, `CCOC(=O)CCCc1cc(NC2CCN(C)CC2)nc(Nc2ccc(OC)cc2)n1` showed an IFI of 2.9%.

Compound `COc1cc(NC(=O)c2sc(-c3ccc(Cl)cc3)cc2NC(=O)c2cccc(N(C)C)c2)ccc1OCCN1CCCC1` showed an IFI of 6.52%.

For the compound `O=S(=O)(NCCN1CCCC1)c1cccc(-c2ccccc2CNC2Cc3ccccc3C2)c1`, the IFI came to 8.04%.

The compound `Cc1ccc(C(C#N)c2ccc3c(C(F)(F)F)cc(C(F)(F)F)nc3n2)cc1` (centres undefined) registered an IFI of 2.78%.

In the case of `O=C(/C=C/c1ccc(Cl)c(Cl)c1)NCC[C@@H]1C[C@H]1CCN1CCC(c2c[nH]c3ccccc23)CC1`, the IFI was 12.3%.

Regarding `CCC(CC)CN1C(=O)C(C)(c2ccccc2)N=C1N` (centres undefined), the IFI was determined as 1.9%.

Turning to `CCCNC(=O)c1cncc(-c2ccc(CNC3Cc4ccccc4C3)cc2)c1`, the IFI amounted to 3.08%.

Compound `C=C(NC(=O)c1cc(C)cc(C)c1)C(=O)OC` came in with an IFI of 4.85%.

Take `Cc1cc(NCCC(=O)NCCOc2ccccc2)nc(Nc2ccccc2)n1`: the IFI worked out at 2.33%.

With `O=C1COC2(CN1CC1CCN(Cc3ccc(O)c(Cl)c3)C1)c1ccccc1-c1ccccc12` (centres undefined), the IFI amounted to 4.03%.

In the case of `COc1cc2nc(N3CCC(CNC(=O)c4cccc5cccnc45)CC3)nc(N)c2cc1OC`, the IFI is 5.22%.

Take `CC(O)C1CCCCN1C(=O)c1cccc(-c2cccc(-c3nc4ccccc4[nH]3)c2)c1` (centres undefined): the IFI worked out at 1.94%.

`CCOCCCNc1ncc(-c2ccsc2)c(-c2nc(C)cs2)n1` came in with an IFI of 8.89%.

In turn, `COc1cc(CCCOc2c(N)nc(N)nc2N)cc(OC)c1OC` showed an IFI of 0.72%.

The compound `COc1cc(NC(=O)c2ccc3c(=O)n(Cc4ccccc4)c(=S)[nH]c3c2)cc(OC)c1OC` gave an IFI of 1.38%.

Turning to `CC1(C)N=C(N)N=C(N)N1c1cccc(C(F)(F)F)c1`, the IFI was 0.85%.

Turning to `Cc1[nH]c2ccc(O)cc2c1C1CCN(CCCCCNC(=O)/C=C/c2ccc(Cl)c(Cl)c2)CC1`, the IFI was found to be 4.96%.

Turning to `COc1c(C=NNc2nc(=Nc3ccccc3)[nH]c(=Nc3ccccc3)[nH]2)ccc(Br)c1O`, the IFI worked out at 4.26%.

On to `O=C(CC1NC(=O)c2ccccc21)Nc1ccc(-c2ccc(-c3nc4cc(C(F)(F)F)ccc4[nH]3)cc2)cc1` (centres undefined), for which the IFI amounted to 1.8%.

Consider `COC(=O)c1cccc(NC(=O)NC2CCN(c3ccnc(Nc4ccc(OC)cc4)n3)C2)c1` (centres undefined), for which the IFI is 1.54%.

In turn, `Nc1cc(-c2ccc(-c3cccs3)s2)nc2ccccc12` gave an IFI of 7.86%.

The compound `N#Cc1ccc2c(c1)CN(C1CCC(NC(=O)C3=Cc4cc(Cl)ccc4OC3)CC1)CCC2` (centres undefined) registered an IFI of 3.39%.

Compound `Cc1noc(C)c1-c1ccc2c(Nc3ccc(C#N)cc3)c(C(N)=O)cnc2c1` yielded an IFI of 4.03%.

`Cc1ccc2sc(N3CCN(C(=O)c4ccc([N+](=O)[O-])o4)CC3)nc2c1C` gave an IFI of -0%.

Consider `CCOC(=O)c1ccc(NC(=O)Nc2cccc(-c3cccc(-c4nc5ccccc5[nH]4)c3)c2)cc1`, for which the IFI was 9%.

In turn, `O=c1ccc2ccc(O)c(O)c2o1` gave an IFI of 6.43%.

`N#Cc1ccc(CN2CCC(Oc3ccc(NC(=O)c4cccs4)cc3)CC2)cc1` gave an IFI of 7.58%.

As for `CC(C)(C)c1ccc(CN2CCC(NC(=O)c3ccc(-c4ccccc4Cl)s3)CC2)cc1`, the IFI was determined as 8.77%.

With `CCN(CCCN1CCCCC1)c1cc(C)nc(Nc2ccc(C)cc2C)n1`, the IFI amounted to 5.06%.

Regarding `COCc1ccc(CN2CCC(C(=O)Nc3ccc(-c4nc5ccccc5[nH]4)cc3)CC2)o1`, the IFI came to 2.63%.

`O=C(CC1SC(N2N=C(c3cccs3)CC2c2ccccc2)=NC1=O)Nc1ccccc1F` (centres undefined) had an IFI of 2.27%.

In the case of `Cc1ccc(-n2c(=O)c3cccnc3n2CC(=O)Nc2cccc(C)c2C)cc1`, the IFI is 1.39%.

`COc1cc(C=CC(=O)N2CCN(Cc3cccc(C)c3)CC2)ccc1OCc1c(C)noc1C` came in with an IFI of 0%.

`Cc1ccc(-c2nnc(Nc3ccc(C(=O)N4CCCCC4)cc3)c3ccccc23)cc1S(=O)(=O)NCC1CCCO1` (centres undefined) gave an IFI of 2.63%.

Turning to `O=C(Nc1cccc(-c2nc3ccccc3[nH]2)c1)c1ccc(-c2cccc([N+](=O)[O-])c2)o1`, the IFI worked out at 0%.

Compound `CCNc1cc(C(=O)N[C@@H](Cc2ccccc2)[C@H](O)CNCc2cc(C#N)ccc2OC)cc(N2CCCC2=O)c1` registered an IFI of -0%.

For `O=C(Nc1ccccc1)N1CCC(CN2CCOC(c3ccccc3)(c3ccccc3)C2)CC1`, the IFI came out at 2.31%.

As to `COc1ccc(CNCc2ccccc2)cc1-c1ccc(S(=O)(=O)NCCN2CCCC2)cc1`, the IFI was 4.9%.

In turn, `Cc1cc(NC2CCCC2)nc(Nc2ccc(F)cc2)n1` gave an IFI of 9.09%.

Compound `O=C(NCCN1CCCC1)c1cccc(-c2ccc(-c3nc4cc(F)ccc4[nH]3)cc2)c1` yielded an IFI of 6.31%.

Consider `Cc1nc(N)nc(N)c1-c1ccc(Cl)cc1`, for which the IFI came to 1.45%.

On to `CN1CCN(CCCN(Cc2cccc(-c3cccc(CNC4CCCC4)c3)c2)C(=O)/C=C/c2ccccc2)CC1`, for which the IFI was found to be 6.62%.

As for `COC(=O)c1cc2cccc(NC[C@@H](C)NC[C@H](O)c3cccc(Cl)c3)c2[nH]1`, the IFI turned out to be 4.44%.

In turn, `CC(C)C(C(=O)n1cc2c(ccc3nc(N)nc(N)c32)n1)C(C)C` had an IFI of 4.48%.

For `COc1ccc2nccc(N(C)CC3(O)CCC(NCc4ccc5c(n4)NC(=O)CS5)CC3)c2n1` (centres undefined), the IFI was -0%.

Take `CC[C@H](NC(=O)c1c(N)c(-c2sccc2Cl)nc2ccccc12)c1ccccc1`: the IFI is 2.38%.

`COC(=O)c1cc(C(O)CNC(C)CCCc2ccccc2)ccc1O` (centres undefined) registered an IFI of 2.17%.

With `O=C(Nc1cccc(-c2ccc(CN3CCC(O)CC3)cc2)c1)c1cccc(Cl)c1`, the IFI came out at 2.94%.

In the case of `COc1ccc(CN2CCN(C(=O)c3cccs3)CC2)c(O)c1`, the IFI came to 0%.

In turn, `COc1ccc(S(=O)(=O)N2CCOCC2)cc1NC(=O)c1cc2ccccc2o1` gave an IFI of 0.95%.

`O=C(/C=C/c1ccc(Cl)c(Cl)c1)NCCCCCN1CCC(NC(=O)Nc2cccc(Cl)c2)CC1` yielded an IFI of 7.28%.

Turning to `Cc1cc(-c2ccc3c(c2)CCN(CCC2CCC(NC(=O)/C=C/c4cccc(Cl)c4)CC2)CC3)on1` (centres undefined), the IFI worked out at 5.88%.

`O=C(/C=C/c1ccc(Cl)c(Cl)c1)NC1CCC(CN2CCC(Cc3c[nH]c4ccccc34)CC2)CC1` (centres undefined) gave an IFI of 3.62%.

The compound `O=C(c1ccc(O)c(-c2cc(Cl)cc(Cl)c2)c1)N1CCCC1` came in with an IFI of 3.73%.

As to `N#Cc1ccc(N[C@@H](CC2CCCCC2)C(=O)Nc2ccc(-c3ccccc3)cc2)c2ccccc12`, the IFI came to 1.94%.

On to `CCN(CC)CCN(Cc1ccc(-c2ccc(C(F)(F)F)cc2)cc1)C(=O)Cn1c(CCc2cccc(C#N)c2)nc(=O)c2ccccc21`, for which the IFI is 6.62%.

`CCOC(=O)C1=C(C)N=c2sc(=Cc3ccccc3O)c(=O)n2C1c1ccc(OC)c2ccccc12` (centres undefined) yielded an IFI of 2.14%.

`CC(CCCCCC(=O)Nc1ccc(CC(C)NCCc2cccc(Cl)c2)cc1)NCCc1cccc(Cl)c1` (centres undefined): the IFI is 11.9%.

The compound `Cc1ccc(OCCCCONC(=O)c2ccccc2)cc1` registered an IFI of 0.7%.

In turn, `CC(=O)Nc1cccc(CNc2cc(C)nc(Nc3ccc(C)cc3)n2)c1` displayed an IFI of 5%.

`COCCNCc1cccc(-c2ccc3nccc(Nc4cc(O)ccc4C)c3c2)c1` gave an IFI of 2.21%.

`O=C(/C=C/c1ccc(Cl)c(Cl)c1)NCCCCCN1CCCC(CCCNC(=O)Nc2ccc(C(F)(F)F)cc2)C1` (centres undefined) had an IFI of 11.3%.

In the case of `CCCCCCN1CCCN(Cc2cccc(C(=O)Nc3ccc(C(C)(C)C)cc3)c2)CC1`, the IFI was found to be 12.3%.

With `Cc1ccc(CNC(=O)[C@H](CCCN)Nc2nc(NCC3CCCCC3)ncc2C)cc1`, the IFI was 8.89%.
